Results reported in US9783610B2.

B1: Anti-TEM1 scFv78-Fc (Fc fusion)
chain: VQPVLTQPPSLSASPGASASLTCTLRSDINVGSYRISWYQQKPGSPPQYLLSYISDSDKQKGSGVPSRFSGSKDASANAGILLISGLQSEDEADYYCMIWHNSAGVFGGGTKLTVLGGGSSRSSSSGGGGSGGGGQVQLQESGGTLVQPGGSLRLSCEASGFTFSNYAMGWVRQTPGKGLEWLSAIRKSGTTTYYADSVKGRFIISRDNSKNTLYLQMNRLRVGDTATYYCATHPIAGYWGQGTLVTVSSASTKGPSVGGGSLIK[… human IgG1 Fc …]
B2: 125I-labeled scFv78-Fc (Fc fusion)
chain: B1 chain
modifications: 125I label (site not stated)

What was measured:
[1] = target: human TEM1 (endosialin, CD248) on cells (human) (UniProt Q9HCU0); assay: live cell-based ELISA on MS1-TEM1 cells; reference scFv78
[2] = target: human TEM1 (endosialin, CD248) on cells (human) (UniProt Q9HCU0); assay: live cell-based ELISA on MS1-TEM1 cells (as restated in the radiolabeling section)
[3] = target: human TEM1 (endosialin, CD248) on cells (human) (UniProt Q9HCU0); assay: live cell-based ELISA, binding to MS1-TEM1 minus binding to MS1 cells, HA-HRP detection
[4] = target: human TEM1 (endosialin, CD248) on cells (human) (UniProt Q9HCU0); assay: binding of 125I-labeled scFv78-Fc to MS1-TEM1 cells

Row | Binder | fold lower KD than scFv78 [1] [fold] | Kd [2] [nM] | Kd [3] [nM] | Kd [4] [nM]
1 | B1 | 15 | 0.15 | 0.14 | –
2 | B2 | – | – | – | 1
